In the supplement of paper PMC4967469:

Legend:
Assay in all cases: Viability of human cancer cell lines after 72 h of drug (GDSC screen)
Thapsigargin = compound: C/C=C(/C)C(=O)O[C@H]1C(C)=C2[C@H]([C@@H]1OC(=O)CCCCCCC)[C@@](C)(OC(C)=O)C[C@H](OC(=O)CCC)[C@@]1(O)[C@H]2OC(=O)[C@@]1(C)O [Thapsigargin]; settings: top dose 0.512 µM; top dose inferred
Method: (§1)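 Human cancer cell lines in 384-well plates, medium with 10% serum, drug for 72 h over a 256-fold dose range (nine 2-fold or five 4-fold steps up to the top dose). Adherent lines were fixed and stained with the nucleic acid dye Syto60, suspension lines read with resazurin; signal relative to control wells, capped at 0 and 100%. One two-parameter sigmoid per drug and line, fitted in a mixed model over all curves with the slope shared within a line.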

(5Z)-7-Oxozeaenol = compound: COc1cc(O)c2c(c1)/C=C/C[C@H](O)[C@H](O)C(=O)/C=C\C[C@H](C)OC2=O [(5Z)-7-Oxozeaenol]; settings: top dose 10 µM; top dose inferred
Method: as §1

CMK = compound: Cc1ccc(-c2c(C(=O)CCl)n(CCCO)c3ncnc(N)c23)cc1 [CMK]; settings: top dose 4 µM; top dose inferred
Method: as §1

MPS-1-IN-1 = compound: COc1cc(N2CCC(O)CC2)ccc1Nc1cc(Nc2ccccc2S(=O)(=O)C(C)C)c2cc[nH]c2n1 [MPS-1-IN-1]; settings: top dose 20 µM; top dose inferred
Method: as §1

CHIR-99021 = compound: Cc1cnc(-c2cnc(NCCNc3ccc(C#N)cn3)nc2-c2ccc(Cl)cc2Cl)[nH]1 [CHIR-99021]
Method: as §1

CP466722 = compound: COc1cc2ncnc(-n3nc(-c4ccccn4)nc3N)c2cc1OC [CP466722]; settings: top dose 16 µM; top dose inferred
Method: as §1

ABT-888 = compound: C[C@]1(c2nc3c(C(N)=O)cccc3[nH]2)CCCN1 [ABT-888]; settings: top dose 5 µM; top dose inferred
Method: as §1

ABT-869 = compound: Cc1ccc(F)c(NC(=O)Nc2ccc(-c3cccc4[nH]nc(N)c34)cc2)c1 [ABT-869]; settings: top dose 1.024 µM; top dose inferred
Method: as §1

GSK269962A = compound: CCn1c(-c2nonc2N)nc2cnc(Oc3cccc(NC(=O)c4ccc(OCCN5CCOCC5)cc4)c3)cc21 [GSK269962A]; settings: top dose inferred
Method: as §1

Cytarabine = compound: Nc1ccn([C@@H]2O[C@H](CO)[C@@H](O)[C@@H]2O)c(=O)n1 [Cytarabine]; settings: top dose 2 µM
Method: as §1

KU-55933 = compound: O=c1cc(-c2cccc3c2Sc2ccccc2S3)oc(N2CCOCC2)c1 [KU-55933]; settings: top dose 10 µM
Method: as §1

Zibotentan = compound: COc1nc(C)cnc1NS(=O)(=O)c1cccnc1-c1ccc(-c2nnco2)cc1 [Zibotentan]; settings: top dose 20 µM; top dose inferred
Method: as §1

QL-X-138 = compound: C=CC(=O)Nc1cc(-n2c(=O)ccc3cnc4ccc(-c5cn[nH]c5)cc4c32)ccc1C [QL-X-138]; settings: top dose 10.24 µM; top dose inferred
Method: as §1

[1] = top dose 2.56 µM, screen: GDSC drug entry 154
[2] = top dose 10 µM, screen: GDSC drug entry 1241, top dose inferred
[3] = top dose 2.5 µM, screen: GDSC drug entry 127
[4] = top dose 5 µM, screen: GDSC drug entry 1192

Cell Line	AUC (Thapsigargin)	IC50 (Thapsigargin)	AUC ((5Z)-7-Oxozeaenol)	IC50 ((5Z)-7-Oxozeaenol)	AUC (CMK)	IC50 (CMK)	AUC (MPS-1-IN-1)	IC50 (MPS-1-IN-1)	AUC (CHIR-99021; [1])	IC50 (CHIR-99021; [1])	AUC (CHIR-99021; [2])	IC50 (CHIR-99021; [2])	AUC (CP466722)	IC50 (CP466722)	AUC (ABT-888)	IC50 (ABT-888)	AUC (ABT-869)	IC50 (ABT-869)	AUC (GSK269962A; [3])	IC50 (GSK269962A; [3])	AUC (GSK269962A; [4])	IC50 (GSK269962A; [4])	AUC (Cytarabine)	IC50 (Cytarabine)	AUC (KU-55933)	IC50 (KU-55933)	AUC (Zibotentan)	IC50 (Zibotentan)	AUC (QL-X-138)	IC50 (QL-X-138)
CMK (acute myeloid leukaemia, suspension)	0.547	0.0422 µM	0.67	1.71 µM	0.95	> 4 µM	0.85	11.7 µM	0.978	> 2.56 µM	0.966	> 10 µM	0.627	2.11 µM	0.987	> 5 µM	0.991	> 1.02 µM	0.786	0.907 µM	0.847	2.87 µM	0.867	1.36 µM	0.96	> 10 µM	0.981	> 20 µM	–	–
D-247MG (glioma, adherent)	–	–	0.661	2.08 µM	0.93	> 4 µM	0.925	> 20 µM	0.751	1.13 µM	0.874	> 10 µM	0.724	5.58 µM	0.966	> 5 µM	0.785	0.618 µM	0.662	0.523 µM	0.887	> 5 µM	0.723	0.686 µM	0.979	> 10 µM	0.913	> 20 µM	0.829	9.85 µM
D-336MG (glioma, adherent)	–	–	0.649	1.83 µM	0.947	> 4 µM	0.928	> 20 µM	0.741	0.974 µM	0.935	> 10 µM	0.801	10.5 µM	0.981	> 5 µM	0.962	> 1.02 µM	0.693	0.643 µM	0.629	0.789 µM	0.743	0.774 µM	0.977	> 10 µM	0.975	> 20 µM	0.576	1.1 µM
DOHH-2 (B-cell lymphoma, suspension)	0.336	0.0113 µM	–	–	0.671	0.738 µM	–	–	0.986	> 2.56 µM	–	–	–	–	0.973	> 5 µM	–	–	0.844	1.72 µM	–	–	0.828	1.2 µM	0.977	> 10 µM	–	–	–	–
EHEB (lymphoid neoplasm, suspension)	0.661	0.11 µM	0.731	3.9 µM	0.942	> 4 µM	–	–	0.978	> 2.56 µM	0.975	> 10 µM	–	–	0.962	> 5 µM	–	–	–	–	0.739	2.11 µM	0.968	> 2 µM	0.971	> 10 µM	–	–	–	–
EW-24 (Ewing sarcoma, semi-adherent)	–	–	0.964	> 10 µM	0.993	> 4 µM	0.974	> 20 µM	0.992	> 2.56 µM	0.991	> 10 µM	0.973	> 16 µM	0.986	> 5 µM	0.993	> 1.02 µM	0.968	> 2.5 µM	0.91	> 5 µM	0.969	> 2 µM	0.974	> 10 µM	0.992	> 20 µM	0.992	> 10.2 µM
GA-10 (Burkitt lymphoma, suspension)	–	–	0.755	2.93 µM	0.81	1.71 µM	–	–	0.874	1.85 µM	0.916	> 10 µM	–	–	0.991	> 5 µM	–	–	0.33	0.0571 µM	0.932	> 5 µM	0.917	> 2 µM	0.932	> 10 µM	–	–	–	–
IM-9 (myeloma, suspension)	0.959	> 0.512 µM	0.605	1.16 µM	0.97	> 4 µM	–	–	0.992	> 2.56 µM	0.917	> 10 µM	–	–	0.99	> 5 µM	–	–	0.992	> 2.5 µM	0.936	> 5 µM	0.982	> 2 µM	0.967	> 10 µM	–	–	–	–
LB647-SCLC (small cell lung carcinoma, semi-adherent)	0.255	0.00574 µM	0.738	3.3 µM	0.786	1.95 µM	–	–	0.979	> 2.56 µM	0.983	> 10 µM	0.846	13.8 µM	0.985	> 5 µM	–	–	0.976	> 2.5 µM	0.885	> 5 µM	0.809	1.19 µM	0.954	> 10 µM	–	–	–	–
NB17 (neuroblastoma, adherent)	–	–	–	–	0.737	1.33 µM	0.79	10.4 µM	0.934	> 2.56 µM	–	–	0.913	> 16 µM	0.982	> 5 µM	0.941	> 1.02 µM	0.794	1.35 µM	–	–	0.905	> 2 µM	0.984	> 10 µM	0.979	> 20 µM	0.39	0.304 µM
NCI-H1581 (large cell lung carcinoma, semi-adherent)	0.403	0.0177 µM	0.613	1.24 µM	0.905	> 4 µM	0.956	> 20 µM	0.99	> 2.56 µM	0.988	> 10 µM	0.804	7.27 µM	0.989	> 5 µM	0.989	> 1.02 µM	0.94	> 2.5 µM	0.906	> 5 µM	0.803	0.9 µM	–	–	0.989	> 20 µM	0.627	1.39 µM
NCI-H1666 (lung adenocarcinoma, semi-adherent)	0.861	0.505 µM	0.666	1.89 µM	0.963	> 4 µM	0.97	> 20 µM	0.986	> 2.56 µM	0.907	> 10 µM	0.921	> 16 µM	0.986	> 5 µM	0.983	> 1.02 µM	0.979	> 2.5 µM	0.985	> 5 µM	0.911	> 2 µM	–	–	0.987	> 20 µM	0.793	5.18 µM
NTERA-2 cl.D1 (testis, adherent)	0.057	< 0.002 µM	0.536	0.782 µM	0.916	> 4 µM	0.852	15.2 µM	0.985	> 2.56 µM	0.958	> 10 µM	0.823	9.32 µM	0.976	> 5 µM	0.982	> 1.02 µM	0.947	> 2.5 µM	0.414	0.182 µM	0.622	0.27 µM	–	–	0.985	> 20 µM	0.776	4.05 µM
OCI-AML5 (acute myeloid leukaemia, suspension)	–	–	0.531	0.753 µM	0.948	> 4 µM	0.652	3.16 µM	0.989	> 2.56 µM	0.988	> 10 µM	0.622	2.1 µM	0.989	> 5 µM	0.738	0.284 µM	0.632	0.349 µM	0.918	> 5 µM	0.346	0.0486 µM	0.989	> 10 µM	0.987	> 20 µM	0.563	0.938 µM
PL-21 (acute myeloid leukaemia, suspension)	0.764	0.215 µM	0.691	2.36 µM	0.885	> 4 µM	0.743	7.07 µM	0.982	> 2.56 µM	0.98	> 10 µM	0.629	2.41 µM	0.983	> 5 µM	0.979	> 1.02 µM	0.763	1.04 µM	0.88	> 5 µM	0.749	0.743 µM	–	–	0.97	> 20 µM	0.486	0.584 µM
SK-N-DZ (neuroblastoma, adherent)	0.584	0.0542 µM	0.409	0.352 µM	0.851	3 µM	0.864	17.1 µM	0.904	> 2.56 µM	0.872	9.31 µM	0.948	> 16 µM	0.987	> 5 µM	0.983	> 1.02 µM	0.913	> 2.5 µM	0.803	2.44 µM	0.754	0.666 µM	–	–	0.987	> 20 µM	0.96	> 10.2 µM
SUP-HD1 (Hodgkin lymphoma, suspension)	–	–	0.688	2.05 µM	0.82	2.16 µM	0.857	15 µM	0.984	> 2.56 µM	0.987	> 10 µM	0.715	3.93 µM	0.974	> 5 µM	0.988	> 1.02 µM	0.945	> 2.5 µM	0.98	> 5 µM	0.976	> 2 µM	0.921	> 10 µM	0.988	> 20 µM	0.587	1.1 µM
U-698-M (B-cell leukaemia, suspension)	–	–	0.807	5.14 µM	0.934	> 4 µM	0.821	11.6 µM	0.978	> 2.56 µM	0.986	> 10 µM	0.807	8.23 µM	0.987	> 5 µM	0.987	> 1.02 µM	0.976	> 2.5 µM	0.885	> 5 µM	0.807	1.03 µM	0.925	> 10 µM	0.984	> 20 µM	0.784	4.35 µM
no-10 (glioma, adherent)	0.805	0.33 µM	0.71	2.83 µM	0.792	2.29 µM	0.964	> 20 µM	0.95	> 2.56 µM	0.963	> 10 µM	0.894	> 16 µM	0.98	> 5 µM	0.975	> 1.02 µM	0.637	0.41 µM	0.794	2.92 µM	0.961	> 2 µM	–	–	0.98	> 20 µM	0.557	0.95 µM

A lower IC50 marks a more sensitive line; a limit (>, <) means that the fit lies beyond the doses tested. The AUC spans the tested range (256-fold, ending at the top dose) of the same fit: 1 means no effect, lower means more sensitive. For some of these results: An inferred top dose was calculated from the reported fits. For some of these results: Drugs with an entry number were screened twice under separate entries, and the two screens often disagree.
